{"source": "paper PMC4336329", "about": "(PLoS ONE, 2015)", "note": "The campaign covered roughly 310,000 compounds. About 2,200 (0.71%) showed an effect of 50% or more. The effect is printed as a negative number. The list shows a part of the results."}
{"molecular_target": "human ether-à-go-go-related gene (hERG) potassium channel (human, UniProt Q12809)", "sequence (Q12809 whole entry, looked up)": "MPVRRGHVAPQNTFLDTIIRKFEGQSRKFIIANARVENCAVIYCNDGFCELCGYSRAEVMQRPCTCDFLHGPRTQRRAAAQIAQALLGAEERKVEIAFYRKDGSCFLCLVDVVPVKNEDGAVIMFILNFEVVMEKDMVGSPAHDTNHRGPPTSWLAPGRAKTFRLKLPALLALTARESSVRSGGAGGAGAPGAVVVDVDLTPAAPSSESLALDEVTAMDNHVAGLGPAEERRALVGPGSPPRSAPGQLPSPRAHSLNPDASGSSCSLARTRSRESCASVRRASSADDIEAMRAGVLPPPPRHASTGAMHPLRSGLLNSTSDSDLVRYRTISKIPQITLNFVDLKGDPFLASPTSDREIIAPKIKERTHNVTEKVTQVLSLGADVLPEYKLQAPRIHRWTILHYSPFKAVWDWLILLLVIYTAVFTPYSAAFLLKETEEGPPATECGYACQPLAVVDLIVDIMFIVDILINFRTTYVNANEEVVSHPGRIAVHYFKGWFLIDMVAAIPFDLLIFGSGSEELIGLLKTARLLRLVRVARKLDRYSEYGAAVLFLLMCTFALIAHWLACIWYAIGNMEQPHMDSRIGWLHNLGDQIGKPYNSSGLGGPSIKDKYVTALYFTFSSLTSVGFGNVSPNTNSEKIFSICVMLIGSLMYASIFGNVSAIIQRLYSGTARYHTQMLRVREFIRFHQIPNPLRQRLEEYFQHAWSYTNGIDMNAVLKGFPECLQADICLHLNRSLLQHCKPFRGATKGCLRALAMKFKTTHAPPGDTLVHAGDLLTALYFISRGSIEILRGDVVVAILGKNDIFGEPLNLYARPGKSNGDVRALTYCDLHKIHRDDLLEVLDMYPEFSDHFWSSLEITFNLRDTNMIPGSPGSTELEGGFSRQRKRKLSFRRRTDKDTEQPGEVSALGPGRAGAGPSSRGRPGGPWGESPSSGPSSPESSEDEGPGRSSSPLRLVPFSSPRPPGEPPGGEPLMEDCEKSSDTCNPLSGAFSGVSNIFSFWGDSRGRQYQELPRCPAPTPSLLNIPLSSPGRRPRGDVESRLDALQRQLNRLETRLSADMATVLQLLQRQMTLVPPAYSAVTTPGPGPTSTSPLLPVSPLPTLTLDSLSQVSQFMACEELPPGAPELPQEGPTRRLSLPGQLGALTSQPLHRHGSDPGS", "experiment": "primary screen, population patch clamp on CHO cells stably expressing hERG", "units": {"hERG current change (%, negative = inhibition) at 1uM": "%"}}
{"smiles": "COc1ccc(CCNC(=O)C2CC(=O)N(C3CCCC3)C2)cc1OC", "note": "(centres unmarked)", "hERG current change (%, negative = inhibition) at 1uM": -4.21}
{"smiles": "COc1ccc(/C=N/NC(=O)c2cccc(Br)c2)cc1CN1CCOCC1", "hERG current change (%, negative = inhibition) at 1uM": -38.5}
{"smiles": "O=C(COC(=O)c1cc(Br)ccc1O)NNC(=O)c1ccc(Cl)cc1", "hERG current change (%, negative = inhibition) at 1uM": 14.9}
{"smiles": "CC1(C)N=C(c2ccccc2)[C@@H]2C(c3ccc([N+](=O)[O-])cc3)N21", "note": "(some centres unmarked)", "hERG current change (%, negative = inhibition) at 1uM": -1.05}
{"smiles": "Cc1cc(NC(=O)c2ccccc2)ncc1NC(=O)c1cccs1", "hERG current change (%, negative = inhibition) at 1uM": 19.4}
{"smiles": "Cn1c(=O)c2c(nc(NCCO)n2CCc2ccccc2)n(C)c1=O", "hERG current change (%, negative = inhibition) at 1uM": 6.9}
{"smiles": "Cc1ccc(NN=Nc2nc3c([nH]2)c(=O)n(C)c(=O)n3C)cc1", "hERG current change (%, negative = inhibition) at 1uM": 7.18}
{"smiles": "CCc1cc(=O)oc2cc(C)cc(OC(C)C(=O)NCCCN3CCOCC3)c12", "note": "(centres unmarked)", "hERG current change (%, negative = inhibition) at 1uM": 13}
{"smiles": "Cc1ccccc1Nc1nc(NCc2ccco2)c2ccccc2n1.Cl", "hERG current change (%, negative = inhibition) at 1uM": -5.19}
{"smiles": "CCOc1cc(S(=O)(=O)Nc2ccncc2)ccc1F", "hERG current change (%, negative = inhibition) at 1uM": 13.7}
{"smiles": "CCC(CC)c1nnc(NC(=O)C2CC(=O)N(CCc3ccc(F)cc3)C2)s1", "note": "(centres unmarked)", "hERG current change (%, negative = inhibition) at 1uM": 14.7}
{"smiles": "Nc1nc(-c2cccnc2)nn1C(=O)COc1ccccc1", "hERG current change (%, negative = inhibition) at 1uM": 10.8}
{"smiles": "O=S1(=O)N=C(N(CCO)/N=C/c2ccc(Cl)cc2)c2ccccc21", "hERG current change (%, negative = inhibition) at 1uM": 20.5}
{"smiles": "Clc1ccc2nc(-c3ccc4c(c3)OCO4)cn2c1", "hERG current change (%, negative = inhibition) at 1uM": 15.3}
{"smiles": "O=C(CCc1nc2ccccc2[nH]c1=O)OCc1ccc(S(=O)(=O)N2CCOCC2)cc1", "hERG current change (%, negative = inhibition) at 1uM": 4.44}
{"smiles": "Cc1ccc(-c2ccccc2NC(=O)CS(=O)CC(=O)Nc2ccc(C)c(Cl)c2)o1", "note": "(centres unmarked)", "hERG current change (%, negative = inhibition) at 1uM": 8.52}
{"smiles": "O=c1oc2c3c4c(cc2c2c1CCC2)OCCN4CCC3", "hERG current change (%, negative = inhibition) at 1uM": 6.17}
{"smiles": "Cc1nc(Nc2cccc(C(C)O)c2)c2nnn(Cc3ccc(F)cc3)c2n1", "note": "(centres unmarked)", "hERG current change (%, negative = inhibition) at 1uM": 10.9}
{"smiles": "Cc1ccc(S(=O)(=O)/N=C2/NC(=O)/C(=C/c3ccccn3)S2)cc1", "hERG current change (%, negative = inhibition) at 1uM": 8.16}
{"smiles": "COc1ccccc1OCC(=O)Nc1nonc1NC(=O)COc1ccccc1OC", "hERG current change (%, negative = inhibition) at 1uM": 7.89}
{"smiles": "O=C(c1cccc(C(=O)N2CCN(c3ccccc3)CC2)c1)N1CCN(c2ccccc2)CC1", "hERG current change (%, negative = inhibition) at 1uM": -5.28}
{"smiles": "O=[N+]([O-])c1nn(-c2ccc3c(c2)OCCO3)n(O)c1=Nc1ccccc1", "hERG current change (%, negative = inhibition) at 1uM": 7.69}
{"smiles": "COc1ccc(-c2oc(NC(=O)CSc3nncn3C)c(C#N)c2-c2ccc(OC)cc2)cc1", "hERG current change (%, negative = inhibition) at 1uM": 13.3}
{"smiles": "CN(Cc1ccccc1)C(=O)COc1ccc2ccccc2c1", "hERG current change (%, negative = inhibition) at 1uM": 4.91}
{"smiles": "COc1ccc(NC(=O)c2ccc([N+](=O)[O-])cc2[N+](=O)[O-])c(OC)c1", "hERG current change (%, negative = inhibition) at 1uM": 5.23}
{"smiles": "Cc1cc(S(=O)(=O)N2CCN(Cc3ccccc3)CC2)c(C)s1.Cl", "hERG current change (%, negative = inhibition) at 1uM": 2.04}
{"smiles": "CC1=NN(CCC#N)C(=O)/C1=C/c1ccc(N(C)C)cc1", "hERG current change (%, negative = inhibition) at 1uM": 13}
{"smiles": "N/C(=N\\OC(=O)COc1ccc(Cl)cc1Br)c1cccnc1", "hERG current change (%, negative = inhibition) at 1uM": -1.87}
{"smiles": "CCCc1nnc(SCC(=O)NC2CC2)n1C", "hERG current change (%, negative = inhibition) at 1uM": 15.1}
{"smiles": "C=CC[C@@]12C=C(OC)C(=O)C(OC)=C1O[C@H](c1ccc3c(c1)OCO3)[C@H]2C", "hERG current change (%, negative = inhibition) at 1uM": 12.5}
{"smiles": "Cc1ccc(Nc2nc(N)nc(CN3CCN(C)CC3)n2)cc1", "hERG current change (%, negative = inhibition) at 1uM": 4.62}
{"smiles": "O=C(N/N=C/c1cccc(C(F)(F)F)c1)c1ccccc1O", "hERG current change (%, negative = inhibition) at 1uM": 7.95}
{"smiles": "COC(Cn1c(-c2cccc(S(=O)(=O)N(C)C)c2)n[nH]c1=S)OC", "hERG current change (%, negative = inhibition) at 1uM": 1.89}
{"smiles": "CC(=O)OCC1=C(C(=O)O)N2C(=O)C(NC(=O)CC(C)c3ccccc3)C2SC1", "note": "(centres unmarked)", "hERG current change (%, negative = inhibition) at 1uM": 1.25}
{"smiles": "OCCC1CN(Cc2ccsc2)CCN1C1CCCC1", "note": "(centres unmarked)", "hERG current change (%, negative = inhibition) at 1uM": 16.5}
{"smiles": "Nc1nc(SCC(=O)Nc2ccccc2-c2ccccc2)n[nH]1", "hERG current change (%, negative = inhibition) at 1uM": 8.49}
{"smiles": "COc1ccc(/C(=C\\Nc2ccc(C)c(C)c2)C(C)=O)cc1OC", "hERG current change (%, negative = inhibition) at 1uM": 3.7}
{"smiles": "NNC(=O)/C(=N/Nc1ccccc1)S(=O)(=O)c1ccc(Cl)cc1", "hERG current change (%, negative = inhibition) at 1uM": 6.37}
{"smiles": "O=CNc1ccc(OP(=O)(Oc2ccccc2)Oc2ccccc2)cc1", "hERG current change (%, negative = inhibition) at 1uM": 1.71}
{"smiles": "O=C(CCS(=O)(=O)c1ccc2c(c1)NC(=O)CS2)NCCc1ccccc1", "hERG current change (%, negative = inhibition) at 1uM": 14.9}
{"smiles": "NNC(=O)COc1ccc(C(F)(F)F)cc1", "hERG current change (%, negative = inhibition) at 1uM": 8.73}
{"smiles": "COCC(=O)n1nc(-c2ccccc2)nc1NCc1ccc(F)cc1", "hERG current change (%, negative = inhibition) at 1uM": 1.87}
{"smiles": "Cn1cc(Cl)c(C(=O)Nc2nc3ccc(Cl)cc3s2)n1", "hERG current change (%, negative = inhibition) at 1uM": 2.49}
{"smiles": "Cn1c2c(c(=O)n(C)c1=O)C(c1ccc(Br)cc1)Nc1ccccc1O2", "note": "(centres unmarked)", "hERG current change (%, negative = inhibition) at 1uM": 1.36}
